# From the supplement of paper PMC8728848
# The list shows a part of the results.
# B1: HHA (Hippeastrum hybrid) (protein)
# chain: MQQDCNLVLYDVDKPIWASNTGGLARDCHLNMQSDGNLVVYAPRNQVIWASNTQGENGNYVCILQKDRNVVIYGTARWATGTNIHGAGIVGVPGSAPQNTTAEMIKLVRKYLITK
# Legend:
# Assay in all cases: glycan array binding signal (z-score within array); higher = stronger binding
# Conditions in all cases: glycan notation: IUPAC condensed, linker removed
# [1] = target: GalNAc3S(b1-4)[Fuc(a1-3)]GlcNAc
# Outline: (§1)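 The binding signal is a Z-score computed within each array and averaged over linkers. Arrays of the same protein sequence at different concentrations or buffers were also averaged together. Data originate from 3228 arrays in the Consortium for Functional Glycomics database, kept only where the protein sequence was available.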
# [2] = target: GalNAc4S6S(b1-4)GlcNAc
# Outline: as §1
# [3] = target: GalNAc6S(b1-4)GlcNAc
# Outline: as §1
# [4] = target: Glc(a1-4)Glc
# Outline: as §1
# [5] = target: Glc(a1-4)Glc(a1-4)Glc(a1-4)Glc
# Outline: as §1
# [6] = target: Glc(a1-6)Glc(a1-6)Glc
# Outline: as §1
# [7] = target: Glc(a1-6)Glc(a1-6)Glc(a1-6)Glc
# Outline: as §1
# [8] = target: Glc(b1-4)Glc
# Outline: as §1
# [9] = target: Glc(b1-6)Glc
# Outline: as §1
# [10] = target: GlcA(b1-3)Gal
# Outline: as §1
# [11] = target: GlcA(b1-3)GlcNAc
# Outline: as §1
# [12] = target: GlcA(b1-6)Gal
# Outline: as §1
# [13] = target: GlcA3S(b1-3)Gal(b1-4)GlcNAc(b1-2)Man
# Outline: as §1
# [14] = target: GlcA3S(b1-3)Gal(b1-4)GlcNAc(b1-3)Gal(b1-4)Glc
# Outline: as §1
# [15] = target: GlcNAc(a1-3)Gal(b1-4)GlcNAc
# Outline: as §1
# [16] = target: GlcNAc(a1-4)Gal(b1-3)GlcNAc
# Outline: as §1
# [17] = target: GlcNAc(a1-4)Gal(b1-4)GalNAc
# Outline: as §1
# [18] = target: GlcNAc(a1-4)Gal(b1-4)GlcNAc
# Outline: as §1
# [19] = target: GlcNAc(a1-4)Gal(b1-4)GlcNAc(b1-3)Gal(b1-4)Glc
# Outline: as §1
# [20] = target: GlcNAc(a1-4)Gal(b1-4)GlcNAc(b1-3)Gal(b1-4)GlcNAc
# Outline: as §1
# [21] = target: GlcNAc(a1-4)Gal(b1-4)GlcNAc(b1-3)Gal(b1-4)GlcNAc(b1-3)Gal(b1-4)GlcNAc
# Outline: as §1
# [22] = target: GlcNAc(a1-4)Gal(b1-4)GlcNAc(b1-3)Gal(b1-4)[Fuc(a1-3)]GlcNAc(b1-3)Gal(b1-4)[Fuc(a1-3)]GlcNAc
# Outline: as §1
# [23] = target: GlcNAc(a1-6)Gal(b1-4)GlcNAc
# Outline: as §1
# [24] = target: GlcNAc(b1-2)Gal(b1-3)GalNAc
# Outline: as §1
# [25] = target: GlcNAc(b1-2)Man(a1-3)[GlcNAc(b1-2)Man(a1-6)]Man(b1-4)GlcNAc(b1-4)GlcNAc
# Outline: as §1
# [26] = target: GlcNAc(b1-2)Man(a1-3)[GlcNAc(b1-2)Man(a1-6)]Man(b1-4)GlcNAc(b1-4)[Fuc(a1-6)]GlcNAc
# Outline: as §1
# [27] = target: GlcNAc(b1-2)Man(a1-3)[GlcNAc(b1-4)][GlcNAc(b1-2)Man(a1-6)]Man(b1-4)GlcNAc(b1-4)GlcNAc
# Outline: as §1
# [28] = target: GlcNAc(b1-2)Man(a1-3)[GlcNAc(b1-4)][GlcNAc(b1-2)Man(a1-6)]Man(b1-4)GlcNAc(b1-4)[Fuc(a1-6)]GlcNAc
# Outline: as §1
# [29] = target: GlcNAc(b1-2)[GlcNAc(b1-4)]Man(a1-3)[GlcNAc(b1-2)Man(a1-6)]Man(b1-4)GlcNAc(b1-4)GlcNAc
# Outline: as §1
# [30] = target: GlcNAc(b1-2)[GlcNAc(b1-4)]Man(a1-3)[GlcNAc(b1-4)][GlcNAc(b1-2)Man(a1-6)]Man(b1-4)GlcNAc(b1-4)GlcNAc
# Outline: as §1
# [31] = target: GlcNAc(b1-2)[GlcNAc(b1-4)]Man(a1-3)[GlcNAc(b1-4)][GlcNAc(b1-2)[GlcNAc(b1-6)]Man(a1-6)]Man(b1-4)GlcNAc(b1-4)GlcNAc
# Outline: as §1
# [32] = target: GlcNAc(b1-2)[GlcNAc(b1-4)]Man(a1-3)[GlcNAc(b1-4)][GlcNAc(b1-2)[GlcNAc(b1-6)]Man(a1-6)]Man(b1-4)GlcNAc(b1-4)[Fuc(a1-6)]GlcNAc
# Outline: as §1
# [33] = target: GlcNAc(b1-2)[GlcNAc(b1-6)]Man(a1-6)[GlcNAc(b1-2)Man(a1-3)]Man(b1-4)GlcNAc(b1-4)GlcNAc
# Outline: as §1
# [34] = target: GlcNAc(b1-2)[GlcNAc(b1-6)]Man(a1-6)[GlcNAc(b1-2)Man(a1-3)]Man(b1-4)GlcNAc(b1-4)[Fuc(a1-6)]GlcNAc
# Outline: as §1
# [35] = target: GlcNAc(b1-2)[GlcNAc(b1-6)]Man(a1-6)[GlcNAc(b1-4)][GlcNAc(b1-2)Man(a1-3)]Man(b1-4)GlcNAc(b1-4)GlcNAc
# Outline: as §1
# [36] = target: GlcNAc(b1-3)Fuc
# Outline: as §1
# [37] = target: GlcNAc(b1-3)Gal
# Outline: as §1
# [38] = target: GlcNAc(b1-3)Gal(b1-3)GalNAc
# Outline: as §1
# [39] = target: GlcNAc(b1-3)Gal(b1-4)Glc
# Outline: as §1
# [40] = target: GlcNAc(b1-3)Gal(b1-4)GlcNAc
# Outline: as §1
# [41] = target: GlcNAc(b1-3)Gal(b1-4)GlcNAc(b1-2)Man(a1-3)[GlcNAc(b1-3)Gal(b1-4)GlcNAc(b1-2)Man(a1-6)]Man(b1-4)GlcNAc(b1-4)GlcNAc
# Outline: as §1
# [42] = target: GlcNAc(b1-3)Gal(b1-4)GlcNAc(b1-2)Man(a1-3)[GlcNAc(b1-3)Gal(b1-4)GlcNAc(b1-2)Man(a1-6)]Man(b1-4)GlcNAc(b1-4)[Fuc(a1-6)]GlcNAc
# Outline: as §1
# [43] = target: GlcNAc(b1-3)Gal(b1-4)GlcNAc(b1-2)[GlcNAc(b1-3)Gal(b1-4)GlcNAc(b1-6)]Man(a1-6)[GlcNAc(b1-3)Gal(b1-4)GlcNAc(b1-2)Man(a1-3)]Man(b1-4)GlcNAc(b1-4)GlcNAc
# Outline: as §1
# [44] = target: GlcNAc(b1-3)Gal(b1-4)GlcNAc(b1-3)Gal(b1-4)GlcNAc
# Outline: as §1
# [45] = target: GlcNAc(b1-3)Gal(b1-4)GlcNAc(b1-3)Gal(b1-4)GlcNAc(b1-2)Man(a1-3)[GlcNAc(b1-3)Gal(b1-4)GlcNAc(b1-3)Gal(b1-4)GlcNAc(b1-2)Man(a1-6)]Man(b1-4)GlcNAc(b1-4)GlcNAc
# Outline: as §1
binder,measurement,setting,value
B1,glycan array binding signal (z-score),[1],-0.214
same,glycan array binding signal (z-score),[2],-0.218
same,glycan array binding signal (z-score),[3],-0.209
same,glycan array binding signal (z-score),[4],-0.204
same,glycan array binding signal (z-score),[5],-0.2
same,glycan array binding signal (z-score),[6],-0.205
same,glycan array binding signal (z-score),[7],-0.187
same,glycan array binding signal (z-score),[8],-0.214
same,glycan array binding signal (z-score),[9],-0.203
same,glycan array binding signal (z-score),[10],-0.198
same,glycan array binding signal (z-score),[11],-0.211
same,glycan array binding signal (z-score),[12],-0.203
same,glycan array binding signal (z-score),[13],-0.214
same,glycan array binding signal (z-score),[14],-0.214
same,glycan array binding signal (z-score),[15],-0.2
same,glycan array binding signal (z-score),[16],-0.21
same,glycan array binding signal (z-score),[17],-0.091
same,glycan array binding signal (z-score),[18],-0.212
same,glycan array binding signal (z-score),[19],-0.215
same,glycan array binding signal (z-score),[20],-0.209
same,glycan array binding signal (z-score),[21],-0.21
same,glycan array binding signal (z-score),[22],-0.16
same,glycan array binding signal (z-score),[23],-0.203
same,glycan array binding signal (z-score),[24],0.16
same,glycan array binding signal (z-score),[25],0.836
same,glycan array binding signal (z-score),[26],-0.168
same,glycan array binding signal (z-score),[27],-0.204
same,glycan array binding signal (z-score),[28],-0.206
same,glycan array binding signal (z-score),[29],0.101
same,glycan array binding signal (z-score),[30],-0.208
same,glycan array binding signal (z-score),[31],-0.217
same,glycan array binding signal (z-score),[32],-0.215
same,glycan array binding signal (z-score),[33],-0.211
same,glycan array binding signal (z-score),[34],-0.2
same,glycan array binding signal (z-score),[35],-0.218
same,glycan array binding signal (z-score),[36],-0.185
same,glycan array binding signal (z-score),[37],-0.201
same,glycan array binding signal (z-score),[38],0.735
same,glycan array binding signal (z-score),[39],-0.208
same,glycan array binding signal (z-score),[40],-0.204
same,glycan array binding signal (z-score),[41],-0.203
same,glycan array binding signal (z-score),[42],-0.147
same,glycan array binding signal (z-score),[43],-0.104
same,glycan array binding signal (z-score),[44],-0.198
same,glycan array binding signal (z-score),[45],-0.132
